{
  "source": "the supplement of paper PMC8728848",
  "binders": {"B1": {"name": "Epa1to9 (Candida glabrata) (protein)", "chain": "MGSSHHHHHHSSGLVPRGSHMTSSNDISLASKDPTTFPLGCSPDITTPKKGLSMELYSYDFRKKGSYPCWDAAYLDPNYPRTGYKSHRLLAKVDGVTGNINFYYHATKGCTPQLGHLPASYNYPKPLTMTNFTMLLYGYFRPKVTGFHTFTISADDLLFVNFGAGNAFDCCRRDSSADHFGNYQAYAIWGSKTAKDELTVHLDAGVYYPIRLFYNNRDYHGALSFTFKTESNENTVSDFSEYFFSLDDTEEGCPGLISYD"}},
  "assay_in_all_cases": "glycan array binding signal (z-score within array); higher = stronger binding",
  "conditions_in_all_cases": "glycan notation: IUPAC condensed, linker removed",
  "key": {"Neu5Ac(a2-8)Neu5Ac": {"target": "Neu5Ac(a2-8)Neu5Ac", "outline": "(§1)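 The binding signal is a Z-score computed within each array. Data were drawn from 3228 arrays in the Consortium for Functional Glycomics database, restricted to those with a known protein sequence. Scores were averaged over arrays of the same protein sequence at different concentrations or buffers, and over linkers, and negative values can be taken as non-binding.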"}, "[1]": {"target": "Neu5Ac(a2-8)Neu5Ac(a2-3)Gal(b1-3)GalNAc(b1-4)[Neu5Ac(a2-3)]Gal(b1-4)Glc", "outline": "as §1"}, "[2]": {"target": "Neu5Ac(a2-8)Neu5Ac(a2-3)Gal(b1-3)GalNAc(b1-4)[Neu5Ac(a2-8)Neu5Ac(a2-3)]Gal(b1-4)Glc", "outline": "as §1"}, "[3]": {"target": "Neu5Ac(a2-8)Neu5Ac(a2-3)Gal(b1-4)Glc", "outline": "as §1"}, "[4]": {"target": "Neu5Ac(a2-8)Neu5Ac(a2-3)Gal(b1-4)GlcNAc", "outline": "as §1"}, "[5]": {"target": "Neu5Ac(a2-8)Neu5Ac(a2-3)[Gal(b1-3)GalNAc(b1-4)]Gal(b1-4)Glc", "outline": "as §1"}, "[6]": {"target": "Neu5Ac(a2-8)Neu5Ac(a2-3)[GalNAc(b1-4)]Gal(b1-4)Glc", "outline": "as §1"}, "[7]": {"target": "Neu5Ac(a2-8)Neu5Ac(a2-8)Neu5Ac", "outline": "as §1"}, "[8]": {"target": "Neu5Ac(a2-8)Neu5Ac(a2-8)Neu5Ac(a2-3)Gal(b1-4)Glc", "outline": "as §1"}, "[9]": {"target": "Neu5Ac(a2-8)Neu5Ac(a2-8)Neu5Ac(a2-3)[Gal(b1-3)GalNAc(b1-4)]Gal(b1-4)Glc", "outline": "as §1"}, "[10]": {"target": "Neu5Ac(a2-8)Neu5Ac(a2-8)Neu5Ac(a2-3)[GalNAc(b1-4)]Gal(b1-4)Glc", "outline": "as §1"}, "[11]": {"target": "Neu5Ac(a2-8)Neu5Ac(a2-8)Neu5Ac(a2-8)Neu5Ac(a2-3)[GalNAc(b1-4)]Gal(b1-4)Glc", "outline": "as §1"}, "[12]": {"target": "Neu5Ac(a2-8)Neu5Gc(a2-3)Gal(b1-4)GlcNAc", "outline": "as §1"}, "[13]": {"target": "Neu5Ac(b2-6)Gal(b1-4)GlcNAc", "outline": "as §1"}, "Neu5Ac(b2-6)GalNAc": {"target": "Neu5Ac(b2-6)GalNAc", "outline": "as §1"}, "[14]": {"target": "Neu5Ac9Ac(a2-3)Gal(b1-3)GlcNAc", "outline": "as §1"}, "[15]": {"target": "Neu5Ac9Ac(a2-3)Gal(b1-4)GlcNAc", "outline": "as §1"}, "[16]": {"target": "Neu5Ac9Ac(a2-6)Gal(b1-4)GlcNAc", "outline": "as §1"}, "[17]": {"target": "Neu5Gc(a2-3)Gal(b1-3)GlcNAc", "outline": "as §1"}, "[18]": {"target": "Neu5Gc(a2-3)Gal(b1-3)[Fuc(a1-4)]GlcNAc", "outline": "as §1"}, "Neu5Gc(a2-3)Gal(b1-4)Glc": {"target": "Neu5Gc(a2-3)Gal(b1-4)Glc", "outline": "as §1"}, "[19]": {"target": "Neu5Gc(a2-3)Gal(b1-4)GlcNAc", "outline": "as §1"}, "[20]": {"target": "Neu5Gc(a2-3)Gal(b1-4)GlcNAc(b1-3)Gal(b1-4)GlcNAc(b1-2)Man(a1-3)[Neu5Gc(a2-3)Gal(b1-4)GlcNAc(b1-3)Gal(b1-4)GlcNAc(b1-2)Man(a1-6)]Man(b1-4)GlcNAc(b1-4)GlcNAc", "outline": "as §1"}, "[21]": {"target": "Neu5Gc(a2-3)Gal(b1-4)[Fuc(a1-3)]GlcNAc", "outline": "as §1"}, "[22]": {"target": "Neu5Gc(a2-6)Gal(b1-4)GlcNAc", "outline": "as §1"}, "Neu5Gc(a2-6)GalNAc": {"target": "Neu5Gc(a2-6)GalNAc", "outline": "as §1"}, "[23]": {"target": "Neu5Gc(a2-8)Neu5Ac(a2-3)Gal(b1-4)GlcNAc", "outline": "as §1"}, "[24]": {"target": "Neu5Gc(a2-8)Neu5Gc(a2-3)Gal(b1-4)GlcNAc", "outline": "as §1"}, "[25]": {"target": "Neu5Gc(a2-8)Neu5Gc(a2-3)Gal(b1-4)GlcNAc(b1-3)Gal(b1-4)GlcNAc", "outline": "as §1"}, "[26]": {"target": "Neu5Gc(a2-8)Neu5Gc(a2-6)Gal(b1-4)GlcNAc", "outline": "as §1"}, "[27]": {"target": "Neu5Gc(b2-6)Gal(b1-4)GlcNAc", "outline": "as §1"}},
  "note": "The other results are listed elsewhere or left out.",
  "data": [
    {"binder": "B1", "values": [
      {"measurement": "glycan array binding signal (z-score)", "setting": "Neu5Ac(a2-8)Neu5Ac", "value": -0.538},
      {"measurement": "glycan array binding signal (z-score)", "setting": "[1]", "value": -0.265},
      {"measurement": "glycan array binding signal (z-score)", "setting": "[2]", "value": 0.235},
      {"measurement": "glycan array binding signal (z-score)", "setting": "[3]", "value": -0.346},
      {"measurement": "glycan array binding signal (z-score)", "setting": "[4]", "value": -0.348},
      {"measurement": "glycan array binding signal (z-score)", "setting": "[5]", "value": 1.1},
      {"measurement": "glycan array binding signal (z-score)", "setting": "[6]", "value": -0.393},
      {"measurement": "glycan array binding signal (z-score)", "setting": "[7]", "value": -0.358},
      {"measurement": "glycan array binding signal (z-score)", "setting": "[8]", "value": -0.406},
      {"measurement": "glycan array binding signal (z-score)", "setting": "[9]", "value": -0.306},
      {"measurement": "glycan array binding signal (z-score)", "setting": "[10]", "value": -0.353},
      {"measurement": "glycan array binding signal (z-score)", "setting": "[11]", "value": -0.355},
      {"measurement": "glycan array binding signal (z-score)", "setting": "[12]", "value": -0.342},
      {"measurement": "glycan array binding signal (z-score)", "setting": "[13]", "value": -0.338},
      {"measurement": "glycan array binding signal (z-score)", "setting": "Neu5Ac(b2-6)GalNAc", "value": -0.346},
      {"measurement": "glycan array binding signal (z-score)", "setting": "[14]", "value": -0.345},
      {"measurement": "glycan array binding signal (z-score)", "setting": "[15]", "value": -0.35},
      {"measurement": "glycan array binding signal (z-score)", "setting": "[16]", "value": -0.264},
      {"measurement": "glycan array binding signal (z-score)", "setting": "[17]", "value": -0.334},
      {"measurement": "glycan array binding signal (z-score)", "setting": "[18]", "value": -0.343},
      {"measurement": "glycan array binding signal (z-score)", "setting": "Neu5Gc(a2-3)Gal(b1-4)Glc", "value": -0.348},
      {"measurement": "glycan array binding signal (z-score)", "setting": "[19]", "value": -0.346},
      {"measurement": "glycan array binding signal (z-score)", "setting": "[20]", "value": -0.346},
      {"measurement": "glycan array binding signal (z-score)", "setting": "[21]", "value": -0.326},
      {"measurement": "glycan array binding signal (z-score)", "setting": "[22]", "value": -0.291},
      {"measurement": "glycan array binding signal (z-score)", "setting": "Neu5Gc(a2-6)GalNAc", "value": -0.354},
      {"measurement": "glycan array binding signal (z-score)", "setting": "[23]", "value": -0.338},
      {"measurement": "glycan array binding signal (z-score)", "setting": "[24]", "value": -0.345},
      {"measurement": "glycan array binding signal (z-score)", "setting": "[25]", "value": -0.341},
      {"measurement": "glycan array binding signal (z-score)", "setting": "[26]", "value": -0.293},
      {"measurement": "glycan array binding signal (z-score)", "setting": "[27]", "value": -0.335}
    ]}
  ]
}
